Test results from the supplement of paper PMC12217912.
The other results are listed elsewhere or left out. Sequences were assembled here from the parent chain. Inactive controls read about 0.05.

B1: TEV protease; numbered along this chain (parent)
chain: MGESLFKGPRDYNPISSSICHLTNESDGHTTSLYGIGFGPFIITNKHLFRRNNGTLVVQSLHGVFKVKDTTTLQQHLVDGRDMIIIRMPKDFPPFPQKLKFREPQREERICLVTTNFQTKSMSSMVSDTSCTFPSGDGIFWKHWIQTKDGQCGSPLVSTRDGFIVGIHSASNFTNTNNYFTSVPKNFMELLTNQEAQQWVSGWRLNADSVLWGGHKVFMVKPEEPFQPVKEATQL

Variants of: B1
Assay: raw area under fraction-flipped curve 0-4 h after induction (AUC4h, not background-subtracted), DNA-recorder readout of cleavage of the substrate (dimensionless); higher = more cleavage of the substrate by the protease variant
Details: temperature: 34 °C; time window: 0-4 h after rhamnose induction
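Further: Bxb1 expression induced with 0.2% (w/v) L-rhamnose at OD600 near 0.5, cultures sampled hourly, flipped fraction per protease–substrate barcode pair counted by paired-end Illumina sequencing.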

Variant | area with substrate ENLCFQS | area with substrate ENLDFQS | area with substrate ENLEFQS | area with substrate ENLFFQS | area with substrate ENLKFQS | area with substrate ENLNFQS | area with substrate ENLPFQS | area with substrate ENLQFQS | area with substrate ENLRFQS | area with substrate ENLSFQS | area with substrate ENLVFQS | area with substrate ENLWFQS | area with substrate ENLGFQS | area with substrate ENLHFQS | area with substrate ENLIFQS | area with substrate ENLLFQS | area with substrate ENLMFQS | area with substrate ENLTFQS
T71N | 0.0599 | 0.0691 | 0.0575 | 0.115 | 0.0881 | 0.0758 | 0.047 | 0.0672 | 0.0657 | 0.0755 | 0.0875 | 0.0585 | – | – | – | – | – | –
L73D | 0.0521 | 0.0499 | 0.0572 | 0.0547 | 0.0587 | 0.053 | 0.0567 | – | 0.0636 | 0.0504 | – | – | 0.0773 | 0.0437 | 0.0781 | 0.0587 | 0.0482 | –
L73K | 0.0638 | 0.0549 | 0.0523 | – | – | 0.0544 | 0.0571 | – | 0.037 | 0.0482 | – | 0.055 | – | – | – | – | – | –
Q75I | 0.0661 | 0.0584 | 0.0532 | 0.0729 | 0.0567 | – | 0.0687 | – | – | 0.0693 | – | – | – | 0.0702 | – | 0.0604 | – | –
L77Q | 0.064 | 0.0657 | – | 0.0614 | 0.0621 | 0.0624 | 0.0556 | – | – | 0.0601 | – | 0.0588 | – | 0.045 | 0.0668 | 0.0241 | – | –
V78L | 0.0967 | – | 0.059 | 0.123 | 0.112 | – | 0.0694 | – | 0.0852 | 0.0444 | – | – | – | 0.0706 | – | 0.0518 | – | –
D82P | 0.0732 | 0.0656 | 0.0689 | – | 0.0558 | 0.0655 | – | – | 0.0598 | 0.0561 | – | – | – | 0.0526 | – | 0.0559 | – | –
I84T | 0.0588 | 0.0796 | 0.0488 | – | 0.0771 | 0.0477 | – | – | 0.0905 | 0.0478 | – | – | – | 0.0338 | – | – | – | 0.0641
R87C | 0.072 | 0.0622 | 0.0592 | 0.0863 | 0.0632 | – | – | – | – | 0.0746 | – | – | – | 0.049 | – | 0.0338 | – | –
R87I | 0.0495 | 0.0597 | – | 0.0706 | – | 0.052 | 0.055 | 0.0579 | 0.0754 | 0.0718 | 0.0551 | – | 0.0568 | 0.06 | – | 0.0625 | 0.0544 | 0.0638
F92D | 0.0599 | 0.047 | 0.0598 | 0.0491 | 0.0531 | 0.0496 | 0.0505 | 0.0517 | 0.0534 | 0.0599 | 0.0647 | 0.0507 | – | 0.0545 | – | – | 0.062 | –
R102P | 0.0436 | 0.0319 | 0.0475 | 0.0463 | – | 0.0436 | 0.0416 | 0.0465 | 0.0611 | 0.0496 | 0.0496 | 0.0432 | – | 0.0687 | – | 0.0379 | – | –
C111G | 0.0702 | 0.0633 | – | 0.0925 | – | – | 0.0587 | – | – | – | – | – | 0.0483 | – | 0.0843 | – | – | –
C111P | 0.0415 | 0.058 | 0.0709 | – | 0.0605 | 0.0533 | – | – | – | – | – | – | – | 0.0812 | – | 0.042 | 0.0655 | –
V113I | 0.0681 | – | 0.0354 | 0.0719 | 0.083 | 0.0809 | – | 0.0704 | – | 0.0678 | – | 0.0629 | – | 0.046 | – | – | – | –
T115L | 0.0802 | – | 0.0645 | 0.0915 | 0.0799 | – | 0.0554 | – | 0.0784 | 0.0534 | 0.0869 | 0.0654 | – | 0.0769 | – | – | – | –

Variant | area with substrate ENLCFQS | area with substrate ENLDFQS | area with substrate ENLEFQS | area with substrate ENLFFQS | area with substrate ENLKFQS | area with substrate ENLNFQS | area with substrate ENLPFQS | area with substrate ENLQFQS | area with substrate ENLRFQS | area with substrate ENLSFQS | area with substrate ENLVFQS | area with substrate ENLWFQS | area with substrate ENLGFQS | area with substrate ENLHFQS | area with substrate ENLIFQS | area with substrate ENLLFQS | area with substrate ENLMFQS | area with substrate ENLTFQS
M125G | 0.0791 | 0.0654 | – | 0.084 | – | 0.0636 | – | – | 0.0717 | – | – | 0.0492 | 0.0611 | 0.0887 | – | 0.0635 | 0.088 | –
M125Q | 0.0828 | 0.0597 | 0.0662 | 0.0929 | 0.0799 | 0.0576 | 0.0527 | 0.0743 | 0.0495 | 0.0552 | – | – | 0.0602 | 0.0587 | 0.0924 | 0.0765 | 0.0692 | –
S127Q | 0.0798 | 0.087 | 0.0074 | 0.129 | 0.0751 | 0.0467 | – | 0.0676 | – | 0.0641 | – | – | 0.0721 | 0.0823 | – | – | – | –
F140N | 0.0541 | 0.0613 | 0.0658 | 0.0644 | 0.07 | 0.0674 | 0.0658 | 0.0654 | 0.0771 | 0.0506 | – | 0.0643 | 0.0395 | 0.0616 | 0.0525 | 0.0664 | – | –
I145L | 0.0654 | – | 0.0585 | 0.0965 | – | – | – | – | – | – | – | – | – | – | 0.0769 | – | – | 0.0689
Q146H | 0.094 | 0.0635 | 0.0636 | 0.0675 | 0.0786 | 0.0745 | 0.069 | 0.0585 | 0.0731 | 0.0703 | 0.0642 | 0.0819 | 0.0595 | 0.0647 | 0.0799 | – | – | 0.0647
Q146S | 0.0759 | 0.0713 | – | – | – | – | – | – | – | – | 0.0724 | – | 0.0704 | 0.0355 | – | – | – | –
G150D | 0.0472 | 0.0651 | 0.0665 | 0.0405 | 0.0327 | 0.051 | – | 0.0641 | – | 0.0428 | – | – | – | 0.0542 | – | – | – | –
G150I | 0.0688 | 0.0615 | 0.0623 | 0.0622 | 0.0552 | 0.063 | 0.0462 | 0.0521 | 0.05 | 0.0566 | – | 0.055 | – | 0.0307 | 0.0918 | 0.0707 | 0.0629 | –
Q151D | 0.0577 | 0.0532 | 0.0593 | 0.0846 | 0.052 | 0.0668 | 0.0543 | – | 0.072 | 0.059 | 0.0902 | 0.0896 | 0.0787 | 0.087 | 0.0893 | – | – | –
V157P | 0.0472 | 0.0535 | 0.0466 | 0.0456 | 0.0479 | 0.0594 | 0.0526 | – | 0.0488 | 0.0554 | – | – | – | 0.0512 | – | 0.057 | – | 0.0578
D161I | 0.0623 | 0.0532 | 0.0585 | 0.0645 | 0.0642 | 0.0414 | 0.0334 | 0.0529 | – | 0.0285 | – | 0.0633 | 0.0702 | 0.0646 | 0.0587 | 0.0507 | 0.0636 | –
G162K | 0.0818 | 0.0648 | – | 0.0626 | 0.0674 | – | 0.0614 | – | 0.0637 | – | – | – | 0.0892 | 0.0647 | 0.0927 | – | – | –
G162W | 0.0431 | 0.0613 | – | 0.116 | 0.0647 | 0.068 | – | 0.1 | – | 0.0595 | 0.0718 | 0.0784 | – | 0.071 | 0.0767 | – | – | –
V165W | 0.0557 | – | – | 0.0657 | 0.0431 | 0.0541 | 0.0781 | 0.0527 | 0.0577 | 0.0592 | – | – | – | 0.0521 | 0.0438 | 0.068 | – | –
